From the RNAGym collection of RNA variant scans (doi:10.1073/pnas.2313332121)
This sample is rich in variants without activity.

B1: TPR 5TU (parent)
chain: GGAUCUUCUCGAUCUAACAAAAAAGACAAAUCUGCCACAAAGCUUGAGAGCAUCUUCGGAUGCAGAGGCGGCAGCCUUCGGUGGCGCGAUAGCGCCAACGUUCUCAACUAUGACACGCAAAACGCGUGCUCCGUUGAAUGGAGUUUAUCAUG

Variants of: B1
Experiment: polymerase ribozyme fitness, log enrichment relative to wild type (log ratio); higher = more active; in vitro selection for triplet polymerase activity
Method in brief: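 Mutant libraries of both subunits of a heterodimeric triplet polymerase ribozyme were PCR-built, transcribed, and selected once in triplicate, with frozen incubation at −7 °C and capture of gel-excised extended constructs on streptavidin beads before RT-PCR. Illumina sequencing of input and output libraries was filtered to genotypes with ≥10 input reads and ≥1 read per output. Fitness is the logarithm of genotype enrichment over wild-type enrichment, using inverse-variance-weighted replicate averages. The logarithm is base 2.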

Which “polymerase ribozyme fitness (log ratio)” value does the source give for GGAUCUUCUCGAUCUAACAAAAAAGACAAAUCUGCCCCAAAGCUUGAGAGCAUCUUCGGAUGCAGGGGCGGCAGCCUUCGGUGGCGCGAUAGCGCCAACGUUCUCAACUAUGAUACGCAAAACGCGUGCUCCGUAGAAUGGAGUUUAUCAUG [A37C A66G C114U U135A] here?
The value was ≤ -4.2.

For GGAUCUUCUCGAUCUAACAAAAAAGACAAAUCUGCCCCAAAGUUUGAGAGCAUCUUCGGAUGCAGAGGCGGCAGCCUUCGGUGACGCGAUAGCGCCAACGUUCUCAACUAUGAAACGCAAAACGCGUGCGCCGUUGAAUGGAGUUUAUCAGG [A37C C43U G84A C114A U130G U151G], which “polymerase ribozyme fitness (log ratio)” value is on record?
Its value is ≤ -4.2.

Which “polymerase ribozyme fitness (log ratio)” value does the source give for GGAUCUUCUCGAUCUAACAAAAAAGACAAAUCUGCCCCAAAGCUUGAGAGCAUUUUCGGAUGCAGAGGCGGCAGCCUUCAGUGACGCGAUAGCGCCUACGUUCUCAACUAUGACACGCAAAACGCAUGCUCCGUUGAAUCGAGUUUAUCAUG [A37C C54U G80A G84A A97U G126A G140C] here?
The value was ≤ -4.2.

With GGAUCUUCUCGAUCUAACAAAAAAGACAAAUCUGCCCCAAAGCUUGAGAGCAUCUUCGGAUGAAGAGGCGGCAGUCUUCCGUGGCGCGAUAGCGCCAACGUUCUCAACUAUGACACGCUAAACGCGUGCUCCGUUGAAUGGAGUUUAUCAUG [A37C C63A C75U G80C A119U] as the variant, how does the “polymerase ribozyme fitness (log ratio)” value read?
Its value is ≤ -4.2.

Which “polymerase ribozyme fitness (log ratio)” value does the source give for GGAUCUUCUCGAUCUAACAAAAAAGACAAAUCUGCCCCAAAGCUUGAGAGCAUCUUCGGAUGCAGAGGAGGCAGCCUUCGGUGGCGCGAUAGCGCCAACGUUCUCAACUAUGACACGCAAAACGCGUGCUCCGUUGAAUGGAGUUCAUAAUG [A37C C69A U146C C149A] here?
Its value is ≤ -4.2.

For GGAUCUUCUCGAUCUAACAAAAAAGACAAAUCUGCCCCAAAGCUUGAGAGCAUCUUCGGAUGCAGAGGCGGCAGCCUUCGGUGGCGGGAUAGCGCCAACGUUCUCAACUAUGACACGCAAAACGCGUGCUCCUUUGAAUGGAGUUUAUCAUG [A37C C87G G133U], which “polymerase ribozyme fitness (log ratio)” value is on record?
Its value is ≤ -4.2.

With GGAUCUUCUCGAUCUAACAAAAAAGACAAAUCUGCCCCAAAGCUUGAGAGCAUCUUCGGAUGCAGAGGCGGCAGCCUUCGGUGGCGCGAUAGCGGCAACGUUCUCAACUAUGACACGCAAAACGCGUGCUCCGUUGAAUCGAGUUUAUCAUG [A37C C95G G140C] as the variant, how does the “polymerase ribozyme fitness (log ratio)” value read?
The value was ≤ -4.2.

Which “polymerase ribozyme fitness (log ratio)” value does the source give for GGAUCUUCUCGAUCUAACAAAAAAGACAAAUCUGCCCCAAAGCUUGAAAGCAUUUUCGGAUGCAGAGGCGGCAGCCUUCGGUGGCGCGAUAGCGGCUACGUUCUCAACUAUGACACGCAAAACGCGUGCUCCGUUGAAUGGAGUUUAUCAUG [A37C G48A C54U C95G A97U] here?
The value was ≤ -4.2.

For GGAUCUUCUCGAUCUAACAAAAAAGACAAAUCUGCCCCAAAGCUUGAGAGCAUCUUCAGAUGCAGAGACGGCAGCCUUCGGUGGCGCGAUAGCGCCAACGUUCUCAACUAUGACACGCAAAACGCGUGCUCCGUUGAAUGGAGUUUAGCAUG [A37C G58A G68A U148G], which “polymerase ribozyme fitness (log ratio)” value is on record?
The value was ≤ -4.2.

Which “polymerase ribozyme fitness (log ratio)” value does the source give for GGAUCUUCUCGAUCUAACAAAAAAGACAAAUCUGCCCCAAAGCUUGAGAGCAUCUUCCGCUGCAGAGGCGGCACUCUUCGGUGGCGCGAUAGCGCCAACGUUCUCGACUAUGACACGCAAAACGCGUGCUCCGUUGAAUGGAGUCUAUCAUG [A37C G58C A60C G74C C75U A106G U145C] here?
The value was ≤ -4.2.

Which “polymerase ribozyme fitness (log ratio)” value does the source give for GGAUCUUCUCGAUCUAACAAAAAAGACAAAUCUGCCCCAAAGCUUGAGAGCAUCUUCGGAUGCAGAAGCGGCAGCCUUCGGUGGCGCGAUAGCGCUAACGUUCUCAACUAUGACACGCAAAACGUGUGCUCCUUUGAAUGGAAUUUAUCAUG [A37C G67A C96U C125U G133U G143A] here?
Its value is ≤ -4.2.

With GGAUCUUCUCGAUCUAACAAAAAAGACAAAUCUGCCCCAAAGCUUGAGAGCAUCUUCGGAUGCAGAGGCAGCAGCCUUCGGUGGAGCGAUAAAGCCAACGUUCUCAACUAUGACACGCAAAACGCGUGCUCCGUUGAAUGGAGUUUAUCAUG [A37C G70A C85A G92A C93A] as the variant, how does the “polymerase ribozyme fitness (log ratio)” value read?
The value was ≤ -4.2.

For GGAUCUUCUCGAUCUAACAAAAAAGACAAAUCUGCCCCAAAGCUUGAGAGCAUCUUCGGAUGCAGAGGCAGCAGCCUUCGGUGGGGCUAUAGCGCCAAUGUUCUCAACUAUGACACGCAAAACGCGUGCUCCGUUGAAUGGAGUUUAUCAUG [A37C G70A C85G G88U C99U], which “polymerase ribozyme fitness (log ratio)” value is on record?
The value was ≤ -4.2.

For GGAUCUUCUCGAUCUAACAAAAAAGACAAAUCUGCCCCAAAGCUUGAGAGCAUCUUCGGAUGCAGAGGCGGCAGCCUUCCGUGGCGCGAUAACGCCAACGUUCUCAACUAUGACACGCAAAACGCGUGAUCCGUUGAAUGGAGUUUAUCAUG [A37C G80C G92A C129A], which “polymerase ribozyme fitness (log ratio)” value is on record?
Its value is ≤ -4.2.

With GGAUCUUCUCGAUCUAACAAAAAAGACAAAUCUGCCCCAAAGCUUGAGAGCAUCUUCGGAUGCAGAGGCGGCAGCCUUCGGUCGGGCGAUAGCGCGAACGUUCUCAACUAUGACACGCAAAACGCGUGCGCCGUUGAAUGAAGUUUAGCAUG [A37C G83C C85G C96G U130G G141A U148G] as the variant, how does the “polymerase ribozyme fitness (log ratio)” value read?
The value was ≤ -4.2.

For GGAUCUUCUCGAUCUAACAAAAAAGACAAAUCUGCCCCAAAGCUUGAGAGCAUCUUCGGAUGCAGAGGCGGCAGCCUUCGGUGGCACGAUAGCGCCAACGUUCUCAACUAUGACACGCAAAACGCGUGCUCCGUUGAAUGGAGUUUAUCAUG [A37C G86A], which “polymerase ribozyme fitness (log ratio)” value is on record?
Its value is -1.34.

For GGAUCUUCUCGAUCUAACAAAAAAGACAAAUCUGCCCCAAAGCUUGAGAGCAUCUUCGGAUGCAGAGGCGGCAGCCUUCGGUGGCUCGAUAGCGCCAACGUUCUCAACUAUGACACGCAAAACGCGUGCUCCGUUGAAUGGUGUUUAUCAUG [A37C G86U A142U], which “polymerase ribozyme fitness (log ratio)” value is on record?
The value was ≤ -4.2.

Which “polymerase ribozyme fitness (log ratio)” value does the source give for GGAUCUUCUCGAUCUAACAAAAAAGACAAAUCUGCCCCAAAGCUUGAGAGCAACUUCGGAUGCAGAGGCGGCAGCCUACGGUGGAGCGAUAGCGCCAACGUUCUCAACUAUGACACGCAAAACGCGUGCUCCGUUGAAUGGAGUUUAUCAUG [A37C U53A U78A C85A] here?
Its value is ≤ -4.2.

For GGAUCUUCUCGAUCUAACAAAAAAGACAAAUCUGCCCCAAAGCUUGAGAGCAGCGUCGGAUGCAGAGGCGGCAGCCUUCGGUGGCGCGAUAGCGUCAACGUUCUCAACUAUGACACGCAAAACGCGGGCUCCGUUAAAUGGAGUUUAUCAUG [A37C U53G U55G C95U U127G G136A], which “polymerase ribozyme fitness (log ratio)” value is on record?
The value was ≤ -4.2.
